From the supplement of paper PMC11417369
± gives the standard deviation of the averaged measurements. This is one part of the list.

system: PfAP2-G AP2 domain (GST-tagged); assay: gcPBM binding intensity (ln(normalized median fluorescence intensity)); higher = stronger DNA binding
Method in brief: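 The binding buffer was 1× PBS containing 1% milk, 0.2 mg/ml BSA, 0.5% salmon testes DNA and 0.03% Triton X-100. In it, GST-tagged P. falciparum DNA-binding domains expressed in E. coli were applied for 1 h to an Agilent 4 × 180k array of primer-extended double-stranded 36-bp intergenic genomic probes plus negative controls. Binding intensity, read with Alexa488 anti-GST antibody and a 488 nm scan, is the highest Masliner-normalised natural-log median intensity across replicate spots of either probe orientation.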

Sequence	gcPBM binding intensity (ln)
TAGAAAATCAGTTAAACACACACATAAAAAAAAAAA [CACACA_site8933]	9.88 ± 0.16
TGTACCTACAAAATATGATATATTTTTATAAATTGT [XGTACX_negctrl_site498]	10.6 ± 0.24
ATGAATTAATCTAATCGTACAATAAGCATTATTATA [XGTACX_site2571]	11.1 ± 0.6
GAATATGTAAAGAAAGGTACACATGAAAATATGTGT [XGTACX_site446]	11.2 ± 0.54
TATTTTTTCTTAAACACACACATATAGATTTATAAC [CACACA_site7354]	10.2 ± 0.21
TGTCCTTATTGGCACACACACATATAAGAAATTTAA [CACACA_site5724]	10.6 ± 0.42
TTTTTTAAAGCCTGTTCATCATCCTTACCTATCAAC [GTGCAC_negctrl_site452]	10 ± 0.13
AACATATATAATATTTGTACTTATATACAAAATATG [XGTACX_site7502]	11.1 ± 0.73
CTAATTCGTATATGCTGTACCTTTTTCTTACGACTA [XGTACX_site4392]	11.3 ± 0.61
ATATGGAATGATCATAGTACATAATTTAAAATTTTA [XGTACX_site3568]	10.8 ± 0.51
ACCCTATTTATATATACACACACATATATAAATAAA [CACACA_site8980]	10.3 ± 0.37
ATAGGATGTTTGCACTGTACCAAAAAATGAGCTGCA [XGTACX_site2825]	11.1 ± 0.68
ACTTTTTTGAACAACGTGCACGTATTCATAACAAAA	10.7 ± 0.4
ATCAGATATATATATTGTACATTTATATATAAATCA [XGTACX_site1960]	10.8 ± 0.45
ATTAAAAATTATATTTTATAAAAATTAAAAGAAATA [CACACA_negctrl_site65]	9.655 ± 0.049
AAAGTATACAATGACGCATGCATATATATATACATA [TGCATGCA_site429]	9.875 ± 0.064
ATTTATTTATCTAGCTATTCACCATTTTCTTTTGTT [CACACA_negctrl_site1259]	9.72 ± 0.3
TCATGTAGTAAAAACTGTACAAATTATTTATCATGT [XGTACX_site1727]	11 ± 0.64
ATAACTTTTGCGCGTACACACATTTATCCTCTTTAT [CACACA_site209]	11.7 ± 0.96
AATATCACATTCCACGGTACACACTAAAAGAAAAAT [XGTACX_site7653]	11 ± 0.69
ATAAATACGATTAATTAGGTTTGTATAAATTAAATT [GTGCAC_negctrl_site635]	9.87
CTATAATAGAAGTGTACACACATATTTATGTCTGTA [CACACA_site7462]	11.7 ± 0.93
TTTTCTTTATTATAATGTACTCACAAATAAATATAA [XGTACX_site7298]	11.3 ± 0.91

Sequence	gcPBM binding intensity (ln)
TTTCATTTTAGAAGTACACACAAAAAATAAAATAAT [CACACA_site2141]	11.6 ± 0.92
GTACCTATAAATATTACACACATTTTCATTTTTAAC [CACACA_site7022]	10.22 ± 0.049
AAAAAAAATTATATTTGTACGCATTAAAAAATCTAA [XGTACX_site1616]	11.5 ± 0.78
AAAATTGTGAAAGGGAAGATGATCAAATTGTTAAGG [CACACA_negctrl_site1492]	9.94 ± 0.014
GATGGGCAAATTTACTGTACTTTTATAATATTTTTT [XGTACX_site4830]	11.4 ± 0.82
TATAATGGTAAAAACACACAAATATGAAGATGTTAA [CACACA_site6479]	9.86 ± 0.014
ATTAAACTCATTAAGAGTACAGATAACATTAAAGTA [XGTACX_site8697]	11.4 ± 0.83
TGAAATTAGATATATACACACATATAGATTTATATG [CACACA_site7619]	9.85 ± 0.042
CTTAAAAACAAAAATGCACACATAATAAGCATATGT [CACACA_site9149]	9.82 ± 0.3
ATTTTTTTTTTTTTTTCATGAAATTTTTTTTTTTTT [CACACA_negctrl_site1069]	9.725 ± 0.021
AACCACCACACCATCACACATAAGATTAGACGAGTA [CACACA_site6063]	10 ± 0.16
TGTAGTAATGCTTATTGTACATATACATTTCTTACA [XGTACX_site219]	10.9 ± 0.64
TTATATAGAATTAATTTCTTTTTTTTCTTTTTTAAA [CACACA_negctrl_site1308]	9.46 ± 0.085
TTAAAAAAAAATAAAGGTACACGGAGAAATCCTTTT [XGTACX_site7509]	11.1 ± 0.6
ATATATTTATTATTAGGTACACATATATATATATAT [XGTACX_site5045]	11.1 ± 0.61
TTTTCCCTTAACCTCTGTACATATAATTTTCTTTCC [XGTACX_site4180]	11 ± 0.61
TTTTTTTTTCGCTTTTGTACACATTTTATAGAACAG [XGTACX_site2416]	11.4 ± 0.88
TATTATATATATGGAAGTACAGGTATATCGTTTTTC [XGTACX_site3771]	11.3 ± 0.66
TATCCATTATTTAAAAGTACAAAAAACGATTTACAC [XGTACX_site2979]	11.3 ± 0.8
AAATATTTTTTAATTGTTCACTTGGTGGATCATTAA [CACACA_negctrl_site922]	10.25 ± 0.071
CACATAAAAAAATAAACACACATATGTATATATATA [CACACA_site3177]	10.05 ± 0.092
ATTTATTTTTTGTGTTCACACATTAGTATCATCTAT [CACACA_site5274]	10.3 ± 0.38
TAGAATATGTTTAGTTGTACAAAACAAAATGGAATT [XGTACX_site5293]	11 ± 0.61

Sequence	gcPBM binding intensity (ln)
ATATTTATGGAATATACACACATGTATAATTATATA [CACACA_site2033]	10.1 ± 0.13
TTTTCTGTTTTCATTACACACCTTACAAGAACAATA [CACACA_site2158]	10.4 ± 0.27
TCTAATGATATATACACACACATATAGATTTATATA [CACACA_site7044]	9.89 ± 0.099
ATTTTTCTAAAATACTGTACAAAGGTGCATAAAAAG [XGTACX_site4425]	11 ± 0.64
TTTATTCAAGGAATAGTGCATAATAATAAGTATTAT	10.1 ± 0.25
TGTATTCTCTTAGTAGTGCATTTGAAGATTATATAA	10.2 ± 0.18
TGCTTTTCTTTTTGCACACTTATGCATATATATATA [CACACA_site2583]	10.2 ± 0.16
AAATAAGAAAAAGCGCGTACACATAACATTTTTATA [XGTACX_site8807]	11.7 ± 0.93
TTTTTTGCTAAAAAGAGTACTAATAAAAAATTTATT [XGTACX_site5235]	11.4 ± 0.88
TTTTTGTAATTATATTAATATATATATATATATATA [CACACA_negctrl_site198]	9.86 ± 0.28
AATAATTTAAGGAATACACACAAGAAAAAAATAAGA [CACACA_site60]	10.2 ± 0.16
TTATCATTTGGACACGCACACACACCGAAAAAGAAA [CACACA_site8008]	11 ± 0.66
GTTCATCACATATACACATGCATATTCTAATATGTA [TGCATGCA_site809]	10.4 ± 0.56
ACATTATATAAAATATGTACATATAAAAAATTCTAT [XGTACX_site1617]	11.3 ± 0.71
CATATATGTGATAACACGCACACAAATGTATAGAAT [CACACA_site2594]	10.4 ± 0.19
GAAAACATTAAAAGTTAGATCATAAGAAAAGAATAT [GTGCAC_negctrl_site726]	9.76 ± 0.28
TATTTATTTATTTATGCATGCATGAATAATTTTTAC [TGCATGCA_site31]	9.98 ± 0.19
ATTATTTAGAAATGAGCACACAAAAAGAAGAATTTT [CACACA_site7913]	10.3 ± 0.15
TCACTATAGTAATTTACACACATTTGAAGAAAATGT [CACACA_site7626]	9.99 ± 0.085
ACAAGAGAAGTAATTGCACACGTTGTTTCTTTTTCT [CACACA_site35]	9.79 ± 0.38
CCACATATACAAAACACACACACAACGTTTTAATAA [CACACA_site1978]	10.1 ± 0.16
ATAATAATATAAAATACACACCTATTATTTTTACAA [CACACA_site6069]	9.86 ± 0.071
TATAATATATATATATGTACATATTATTTACATATA [XGTACX_site7312]	11.2 ± 0.71

Sequence	gcPBM binding intensity (ln)
AAAAAAAAAAAAAAGAGTACATTTATTTATATATCT [XGTACX_site2381]	11.5 ± 0.88
TGTTTAACACATGTTTCAAACAAAAAAAAAAAGACA [CACACA_negctrl_site1356]	10.1 ± 0.28
AATATATTAAATCTTACACACTAAAAAATATGTAAC [CACACA_site4325]	9.88 ± 0.085
TTTTAACATAGAAGTACACACATATAATCAATCATA [CACACA_site5313]	11.4 ± 0.88
AAGAATTATATATTCACACAAAAAAAAAGTAAAAGA [CACACA_site5335]	10.04 ± 0.028
TTTTAAATTTTTTAAAGTACACGTCGAAAAGGTATA [XGTACX_site76]	11.4 ± 1.1
AAAACAGACAAACACACACACACATATATATATATA [CACACA_site3393]	10.1 ± 0.25
CTTTTAATTATAAAATGTACTTAAAAATAATAATAC [XGTACX_site635]	11.1 ± 0.88
TTATCCCCCTATCATTGTACATTAATACAAACTAAA [XGTACX_site5630]	11.5 ± 0.95
AAAATGAAACAAATATGTACACATATAAATATTTCC [XGTACX_site54]	11.3 ± 0.69
TTAATTTTTGAAGGTACACACTAATATATTAAATAT [CACACA_site4791]	11.2 ± 0.79
AAATATATACTACCGATGCACTAAATATAAACACAT [GTGCAC_site9777]	10.2 ± 0.22
TTTTATGAAAAATGGCTTATCTGTAAAGAAGTGGAG [CACACA_negctrl_site1586]	10.3 ± 0.36
ATAAAGAAAATATGGAGTACATTTATATCCAATATA [XGTACX_site3085]	11.5 ± 1
ATATTTGTAATTATTAAACACACACTAATTATATAT [CACACA_site8803]	9.96 ± 0.16
TAACATATAATATTATGTACATATATACATATATAA [XGTACX_site7467]	11.1 ± 0.66
ATCAAATAATAGCAAACACACAAAAAATAAAAAAAA [CACACA_site4146]	9.96 ± 0.15
AATGTTTTTTTTTTTTTTTTTTTTTATTTATTGTTA [CACACA_negctrl_site505]	9.68 ± 0.22
ATTTTTTGGAAAAGAAGTACAATGGATTTATACGTT [XGTACX_site891]	11.5 ± 1.1
AAAAAATCACGACACACACACACACTAAAAAAAAAA [CACACA_site6792]	10.3 ± 0.3
